Measurements reported in patent US20100036088A1, “Selective poly-N-substituted glycine antibiotics” (priority 2008, published 2010).
≈ marks a conversion by molar mass, not a printed value. Not every detail of the peptide structures is certain; ends, links or a residue may be inferred. Square brackets hold non-standard residues; d marks the D form. Peptide text beside a SMILES is read from it. Gly(N-CH2CH2-imidazol-4-yl) = O=C(O)CNCCc1c[nH]cn1; Nspe = C[C@H](NCC(=O)O)c1ccccc1; Nphe = O=C(O)CNCc1ccccc1; Nlys = NCCCCNCC(=O)O

Experiments:
[1] = system: Staphyloccus aureus (ATCC #25923); assay: Murine intraperitoneal infection model; assay type: in vivo; conditions: mouse, 4 mg/kg I.P. four hours post infection, 24 hours
Protocol: Using a murine peritoneal injection mouse model, the ability of peptoids to treat infection was evaluated in vivo. The results from three separate studies of peptoid 1 and two of peptoid 1-Nhis6,12 against saline treated controls are shown in FIG. 7. The horizontal line represents the geometric mean of each population.
Murine intraperitoneal infection model. Bacteria was prepared by inoculating 5 mL of MHB with a single colony of Staphyloccus aureus (ATCC #25923) from a freshly streaked plate and grown overnight at 37 C. The following morning, the bacteria was subcultured by diluting 1/3 in MHB and grown for approximately 1.5 hours. The bacteria were then diluted 10-fold in a 5% mucin in PBS solution and thoroughly mixed. A sample was reserved to later determine the amount of bacteria the mice received.
Mice were weighed, marked, and injected I.P. with 200 uL of S. aureus inoculum. Four hours post infection, mice were treated I.P. with 4 mg/kg peptoid (˜100 ug per mouse). The infection is allowed to proceed overnight. Mice were euthanized by CO2 asphyxiation after 24 hours, and the peritoneal cavity was exposed and lavaged with 5 mL PBS. The lavage was mixed and reserved on ice until plating. […] Colonies were counted the following day, and the CFU/ml of each sample was calculated. […]

[2] = RP-HPLC elution solvent composition as measure of molecular hydrophobicity; assay type: physicochemical; conditions: for HPLC elution (% ACN): Table 5, average of three injections, linear 5%-95% acetonitrile/water (0.1% TFA) over 45 minutes, C18 column, measure of hydrophobicity
[3] = system: Proteus vulgaris ATCC 49132; assay type: cell-based; conditions: Table 7A
Protocol: (§1) Antibacterial assays. MICs were determined according to CLSI M7-A6 protocols in a 96-well microtiter plate. In test wells, 50 μL bacterial inoculum (5×10^5 CFU/ml) in Mueller-Hinton broth (MHB) was added to 50 μL peptoid solution in MHB (prepared by 1:2 serial dilutions). Positive controls contained 50 μL inoculum and 50 μL MHB without peptoid. […] MIC values reported were reproducible between three independent experimental replicates, each consisting of two parallel trials. Broad-spectrum antimicrobial susceptibility testing was performed against BSL2 pathogens by Nova Biologicals, Inc. (Conroe, Tex.).
(§2) Broad-spectrum antibacterial assays. MICs of compounds were determined by microdilution procedure in Mueller-Hinton broth (MHB) in accordance with CLSI M7-A6 protocols in a manner similar to that described for the screen antibacterial assays. Inoculated microtiter plates were incubated at 35° C. for 24 hours prior to the result being recorded. Four ATCC strains that were used as standards are recommended by CLSI: Pseudomonas aeruginosa ATCC 27853, Escherichia coli ATCC 25922, Staphylococcus aureus ATCC 29213 and Enterococcus faecalis ATCC 29212. Other strains from the ATCC collection include Proteus vulgaris ATCC 49132, Proteus mirabilis ATCC 35659, Klebsiella pneumoniae ATCC 33495, Enterobacter aerogenes ATCC 35029 and Serratia marcescens ATCC 13880. S. aureus NRS100 (COL) is a well characterized methicillian-resistant S. aureus (MRSA) strain. The strains S. aureus VAN1 and S. aureus VAN2, vancomycin-resistant MRSA strains that were isolated in Michigan and Pennsylvania, were the first vancomycin-resistant strains clinically isolated. S. aureus NRS119 and S. aureus NRS120 are linezolid-resistant isolates from the Network on Antimicrobial Resistance in S. aureus (NARSA) collection. E. faecalis 99 and E. faecium 106 are vancomycin-resistant enterococcal strains.

Enterococcus faecalis 99 = assay type: cell-based; conditions: Table 7A
Protocol: as §1, §2

[4] = system: Staphylococcus aureus NRS100 (COL); assay type: cell-based; conditions: Table 7A; MRSA
Protocol: as §1, §2

[5] = system: Staphylococcus aureus NRS119; assay type: cell-based; conditions: Table 7A; linezolid-resistant
Protocol: as §1, §2

[6] = system: Staphylococcus aureus VAN1; assay type: cell-based; conditions: Table 7A; MRSA, vancomycin-resistant
Protocol: as §1, §2

[7] = system: Pseudomonas aeruginosa ATCC 27853; assay type: cell-based; conditions: Table 7A
Protocol: as §1, §2

[8] = system: Staphylococcus aureus VAN2; assay type: cell-based; conditions: Table 7A; MRSA, vancomycin-resistant
Protocol: as §1, §2

[9] = system: Staphylococcus aureus ATCC 29213; assay type: cell-based; conditions: Table 7A
Protocol: as §1, §2

[10] = system: Klebsiella pneumoniae ATCC 33495; assay type: cell-based; conditions: Table 7A
Protocol: as §1, §2

[11] = system: Escherichia coli ATCC 25922; assay type: cell-based; conditions: Table 7A
Protocol: as §1, §2

Enterococcus faecium 106 = assay type: cell-based; conditions: Table 7A
Protocol: as §1, §2

[12] = system: Enterobacter aerogenes ATCC 35029; assay type: cell-based; conditions: Table 7A
Protocol: as §1, §2

[13] = system: Staphylococcus aureus NRS120; assay type: cell-based; conditions: Table 7A; linezolid-resistant
Protocol: as §1, §2

[14] = system: Enterococcus faecalis ATCC 29212; assay type: cell-based; conditions: Table 7A
Protocol: as §1, §2

Row | SMILES | bacterial counts from the peritoneal lavage versus saline treated controls [1] | HPLC elution (% ACN) [2] | MIC P. vulgaris ATCC 49132 [3] | MIC E. faecalis 99 (Enterococcus faecalis 99) | MIC S. aureus NRS100 (COL) [4] | MIC S. aureus NRS119 [5] | MIC S. aureus VAN1 [6] | MIC P. aeruginosa ATCC 27853 [7] | MIC S. aureus VAN2 [8] | MIC S. aureus ATCC 29213 [9] | MIC K. pneumoniae ATCC 33495 [10] | MIC E. coli ATCC 25922 [11] | MIC E. faecium 106 (Enterococcus faecium 106) | MIC E. aerogenes ATCC 35029 [12] | MIC S. aureus NRS120 [13] | MIC E. faecalis ATCC 29212 [14] | HPLC elution solvent ([2]; Table 1, percent acetonitrile in water, 0.1% (v/v) TFA at HPLC elution)
1 | C[C@@H](c1ccccc1)N(CC(=O)N(CCc1cnc[nH]1)CC(=O)N(CCCCN)CC(=O)N(CC(=O)N(CC(=O)N(CCCCN)CC(=O)N(CC(=O)N(CCc1cnc[nH]1)CC(N)=O)[C@@H](C)c1ccccc1)[C@@H](C)c1ccccc1)[C@@H](C)c1ccccc1)C(=O)CN(CCCCN)C(=O)CN(C(=O)CN(C(=O)CNCCCCN)[C@@H](C)c1ccccc1)[C@@H](C)c1ccccc1 [1-Nhis6,12] (H-[Nlys][Nspe][Nspe][Nlys][Nspe][Gly(N-CH2CH2-imidazol-4-yl)][Nlys][Nspe][Nspe][Nlys][Nspe][Gly(N-CH2CH2-imidazol-4-yl)]-NH2) | not reduced |  |  |  |  |  |  |  |  |  |  |  |  |  |  |  | 
2 | C[C@@H](c1ccccc1)N(CC(N)=O)C(=O)CN(Cc1ccccc1)C(=O)CN(CCCCN)C(=O)CN(C(=O)CN(Cc1ccccc1)C(=O)CN(CCCCN)C(=O)CN(C(=O)CN(Cc1ccccc1)C(=O)CN(CCCCN)C(=O)CN(C(=O)CN(Cc1ccccc1)C(=O)CNCCCCN)[C@@H](C)c1ccccc1)[C@@H](C)c1ccccc1)[C@@H](C)c1ccccc1 [1-Npm2,5,8,11, H-(Nlys-Npm-Nspe)4-NH2] (H-[Nlys][Nphe][Nspe][Nlys][Nphe][Nspe][Nlys][Nphe][Nspe][Nlys][Nphe][Nspe]-NH2) |  | 63.6 % ACN | 64 µg/mL (≈ 36.3 µM) | 64 µg/mL (≈ 36.3 µM) | 8 µg/mL (≈ 4.54 µM) | 16 µg/mL (≈ 9.07 µM) | 8 µg/mL (≈ 4.54 µM) | 64 µg/mL (≈ 36.3 µM) | 8 µg/mL (≈ 4.54 µM) | 8 µg/mL (≈ 4.54 µM) | 16 µg/mL (≈ 9.07 µM) | 8 µg/mL (≈ 4.54 µM) | 4 µg/mL (≈ 2.27 µM) | 64 µg/mL (≈ 36.3 µM) | 16 µg/mL (≈ 9.07 µM) | 8 µg/mL (≈ 4.54 µM) | 
3 | C[C@@H](c1ccccc1)N(CC(N)=O)C(=O)CN(C(=O)CN(CCCCN)C(=O)CN(C(=O)CN(C(=O)CN(CCCCN)C(=O)[C@@H]1CCCN1C(=O)CN(C(=O)CN(CCCCN)C(=O)CN(C(=O)CN(C(=O)CNCCCCN)[C@@H](C)c1ccccc1)[C@@H](C)c1ccccc1)[C@@H](C)c1ccccc1)[C@@H](C)c1ccccc1)[C@@H](C)c1ccccc1)[C@@H](C)c1ccccc1 [1-Pro6, H-Nlys-Nspe-Nspe-Nlys-Nspe-L-Pro-(Nlys-Nspe-Nspe)2-NH2] (H-[Nlys][Nspe][Nspe][Nlys][Nspe]P[Nlys][Nspe][Nspe][Nlys][Nspe][Nspe]-NH2) |  | 62.4 % ACN | 32 µg/mL (≈ 18.2 µM) | 64 µg/mL (≈ 36.5 µM) | 8 µg/mL (≈ 4.56 µM) | 16 µg/mL (≈ 9.12 µM) | 8 µg/mL (≈ 4.56 µM) | 32 µg/mL (≈ 18.2 µM) | 8 µg/mL (≈ 4.56 µM) | 8 µg/mL (≈ 4.56 µM) | 16 µg/mL (≈ 9.12 µM) | 16 µg/mL (≈ 9.12 µM) | 4 µg/mL (≈ 2.28 µM) | 128 µg/mL (≈ 72.9 µM) | 16 µg/mL (≈ 9.12 µM) | 8 µg/mL (≈ 4.56 µM) | 40%
4 | C[C@@H](c1ccccc1)N(CC(N)=O)C(=O)CN(C(=O)CN(CCCCN)C(=O)[C@@H]1CCCN1C(=O)CN(C(=O)CN(CCCCN)C(=O)CN(C(=O)CN(C(=O)CN(CCCCN)C(=O)CN(C(=O)CN(C(=O)CNCCCCN)[C@@H](C)c1ccccc1)[C@@H](C)c1ccccc1)[C@@H](C)c1ccccc1)[C@@H](C)c1ccccc1)[C@@H](C)c1ccccc1)[C@@H](C)c1ccccc1 [1-Pro9, H-(Nlys-Nspe2)2-Nlys-Nspe-L-Pro-(Nlys-Nspe2)-NH2] (H-[Nlys][Nspe][Nspe][Nlys][Nspe][Nspe][Nlys][Nspe]P[Nlys][Nspe][Nspe]-NH2) |  | 62.6 % ACN | 64 µg/mL (≈ 36.5 µM) | 64 µg/mL (≈ 36.5 µM) | 8 µg/mL (≈ 4.56 µM) | 16 µg/mL (≈ 9.12 µM) | 8 µg/mL (≈ 4.56 µM) | 32 µg/mL (≈ 18.2 µM) | 8 µg/mL (≈ 4.56 µM) | 16 µg/mL (≈ 9.12 µM) | 16 µg/mL (≈ 9.12 µM) | 8 µg/mL (≈ 4.56 µM) | 4 µg/mL (≈ 2.28 µM) | 64 µg/mL (≈ 36.5 µM) | 16 µg/mL (≈ 9.12 µM) | 8 µg/mL (≈ 4.56 µM) | 
